Results as given in PubChem BioAssay AID1346428 (National Center for Advancing Translational Sciences (NCATS), 2018).
Where “and” joins values, the source holds several entries; their conditions need not be identical. Equal values may be shown once. The campaign covered roughly 48,000 compounds. About 1,200 (2.5%) were called active. Not shown: some 2% with an inconclusive outcome.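 How the source made its calls: active means activation of at least 60% and not above a set upper limit (about 1 call in 100 departs from these limits); inconclusive means activation of 40% to 60%, or above that upper limit; inactive means activation under 40%.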 This is one part of the list.

Target: Probable G-protein coupled receptor 32 (Homo sapiens) (UniProt O75388)
Assay: qHTS for Agonists of Human Resolvin D1 Receptor DRV1; further: 0% is about no effect
Settings: CHO-K1 GPR32 beta-arrestin PathHunter luminescence, 90 min; at 76.9 µM; hits give high values; zero percent set by DMSO-only wells
Outline: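 Readings come from a cell-based beta-arrestin complementation format: CHO-K1 GPR32 stable cells (2,500/well) treated 90 min with compounds, then beta-Gal substrate added for 1 h before chemiluminescence imaging.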

UniProt O75388, sequence (O75388 whole entry, looked up): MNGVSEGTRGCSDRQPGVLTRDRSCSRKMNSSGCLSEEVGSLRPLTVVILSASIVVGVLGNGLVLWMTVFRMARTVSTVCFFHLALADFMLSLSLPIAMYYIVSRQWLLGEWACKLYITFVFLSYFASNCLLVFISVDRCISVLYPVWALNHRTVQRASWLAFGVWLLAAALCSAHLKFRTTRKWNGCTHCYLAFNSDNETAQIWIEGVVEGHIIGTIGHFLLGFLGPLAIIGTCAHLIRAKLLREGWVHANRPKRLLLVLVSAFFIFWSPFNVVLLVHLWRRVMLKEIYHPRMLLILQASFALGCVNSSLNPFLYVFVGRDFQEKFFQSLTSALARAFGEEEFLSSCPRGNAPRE

| SMILES | activation |
| --- | --- |
| Nc1c(-c2nc(-c3ccc4c(c3)OCO4)cs2)c2ccccn2c1C(=O)c1ccc(Cl)cc1 | inactive: -6.79% |
| CCCC12CN3CC(C)(CN(C1)C3c1ccc(OCc3ccccc3)cc1)C2=O (stereo not given) | inactive: 4.82% |
| Cc1cccc(CNC(=O)CN2C(=O)CCn3nc(-c4cn(C)c5ccccc45)cc32)c1 | active: 107% |
| Cc1ccc(SCc2nc(-c3ccc(C(=O)NCC(C)c4ccccc4)cc3)oc2C)cc1 (stereo not given) | inactive: -6.33% |
| Cc1ccc2oc(=O)c3cc(C(=O)NCCc4ccc(Cl)cc4)sc3c2c1 | inactive: 3.47% |
| Cc1ccc(NC(=O)CCN2C(=O)c3ccccc3Sc3ncccc32)c(Cl)c1 | inactive: 2.45% |
| COc1ccccc1NC(=O)c1sc2nc(C)c(C(=O)Nc3ccc(C)cc3C)c(-c3ccccc3Cl)c2c1N | inactive: -20.2% |
| COc1cc(OC)cc(C(=O)NCCc2csc(-c3ccc(C(F)(F)F)cc3)n2)c1 | inactive: -13.8% |
| CCS(=O)(=O)N1CCc2cc(C(=O)NCc3ccccc3Cl)ccc21 | inactive: 28.7% |
| COc1ccc(NC(=O)C(C(C)C)N2Cc3ccccc3C2=O)cc1 (stereo not given) | inactive: -8.82% |
| CCCCc1nn2c(=O)cc(COC(=O)c3ccccc3C)nc2s1 | inactive: 8.48% |
| O=C(c1cc2ccc3cccnc3c2[nH]1)N1CCN(c2cccc(Cl)c2)CC1 | inactive: -10.3% |
| CCOc1ccccc1NS(=O)(=O)c1cc(-c2cnc(C3CC3)o2)ccc1C | inactive: -4.66% |
| Cc1ccc(-n2nc3c(=O)n(C(C)C(=O)NCc4ccccc4C)nc(C)c3c2C)cc1 (stereo not given) | inactive: 3.73% |
| CCc1ccccc1NC(=O)NC(CC)Cn1nnc2ccccc2c1=O (stereo not given) | inactive: -21.5% |
| Cc1ccc(C)c(NC(=O)CSc2nc(=O)n(Cc3ccncc3)c3c2CCC3)c1 | inactive: -10.1% |
| COC(=O)c1cc2sc(C)cc2n1Cc1nc(-c2ccc(C)cc2)oc1C | inactive: -3.3% |
| CC(=O)N1c2ccc(S(=O)(=O)NCCC(=O)N(C)Cc3ccccc3)cc2CC1C (stereo not given) | inactive: 26.4% |
| Cc1cc2n(n1)CCC(=O)N2Cc1ccc(C(=O)Nc2cccc(C(F)(F)F)c2)cc1 | inactive: 27.8% |
| O=C(NCCc1ccc(Cl)cc1)C(=O)NCC(c1cccs1)S(=O)(=O)c1ccccc1 (stereo not given) | inactive: -3.72% |
| COc1ccc(-c2noc(CSc3nc4ccccc4[nH]3)n2)cc1 | active: 96.1% |
| CC(C)c1ccc(Nc2c(-c3ccc(N(C)C)cc3)nc3cnccn23)cc1 | inactive: 1.48% |

| SMILES | activation |
| --- | --- |
| Cc1ccc(Nc2c(-c3ccc(C)cc3)nc3c(C)cccn23)cc1 | inactive: -20.9% |
| CCc1cccc(C)c1NC(=O)CCS(=O)(=O)c1ccc2c(c1)oc(=O)n2C | inactive: 2.98% |
| COc1cccc(CN(C(=O)c2oc3ccccc3c2C)C2CCS(=O)(=O)C2)c1 (stereo not given) | inactive: -23.2% |
| CN(C)CCC(c1ccccc1)c1ccccn1 (stereo not given) | inactive: -8.3% and inactive: -1.02% |
| CNC(=O)c1c(NC(=O)Cc2coc3ccc(OC)cc23)sc2c1CCCC2 | inactive: -13.4% |
| Cc1cc(C)c(NC(=O)CSc2nc3c([nH]c4ccccc43)c(=O)n2C)c(C)c1 | inactive: -6.37% |
| COc1ccc(CCNC(=O)c2ccc(Cn3c(=O)[nH]c4cc(OC)c(OC)cc4c3=O)cc2)cc1OC | inactive: -8.15% |
| O=C(/C=C/c1ccccc1)OCc1ccccc1 | inactive: 16.6% |
| O=C(CN1CCN(Cc2ccc3c(c2)OCO3)CC1)N1c2ccccc2Sc2ccccc21 | inactive: -3.19% |
| CCc1ccccc1N(CC)C(=O)C1CCN(c2ncnc3c2nc2n3CCCCC2)CC1 | inactive: -14.3% |
| CCOC(=O)C(=O)c1csc(NC=O)n1 | inactive: 7.87% |
| CCCCNC(=O)CN1CCN(c2ncc(NC(=O)c3ccc(Cl)cc3)cc2C(=O)O)CC1 | inactive: 11.1% |
| COc1cc(NC(=O)C2CCN(c3nc4ccccc4nc3C(F)(F)F)CC2)cc(OC)c1 | inactive: -2.24% |
| CCCOc1cccc(C2c3c(oc4ccc(F)cc4c3=O)C(=O)N2c2nc(C)c(C(C)=O)s2)c1 (stereo not given) | inactive: -4.42% |
| CCC(C)NC(=O)c1sc2nc3n(c(=O)c2c1C)CCC3 (stereo not given) | inactive: 4.6% |
| COCCc1nn2c(=O)cc(COC(=O)c3ccc(Br)cc3)nc2s1 | inactive: -8.55% |
| O=c1c2ccccc2n(Cc2cccc(Cl)c2)c(=O)n1Cc1ccccc1 | inactive: -10.4% |
| CCN(C(=O)Cn1ncc2c(=O)oc3ccccc3c21)c1ccccc1F | inactive: 1.06% |
| CN1CCN(C(CNC(=O)c2c(F)cccc2F)c2ccc3c(c2)OCO3)CC1 (stereo not given) | inactive: 2.71% |
| Cc1cccc(N2CCN(C(=O)c3cc4ccc5cccnc5c4[nH]3)CC2C)c1 (stereo not given) | inactive: -1.94% |
| COc1cccc2c1cc1c(=O)n(CC(=O)N3CCC(C)CC3)nc(C)n12 | inactive: -7.2% |
| COCCCNc1nc(NCc2ccc(C)cc2)c2cnn(C)c2n1 | active: 69.1% |

| SMILES | activation |
| --- | --- |
| CCC(=O)Nc1sc2c(c1C(=O)Nc1ccc(Br)cc1)CCCCC2 | inactive: -7.62% |
| O=c1oc2ccccc2cc1-c1nc(-c2cccs2)no1 | inactive: 16.2% |
| COc1ccccc1OCc1nc(-c2cccc(C)c2)no1 | active: 76.8% |
| COc1cc(OC)c(NC(=O)N2CC=C(c3c[nH]c4ccccc34)CC2)cc1Cl | inactive: -4.97% |
| COc1cccc(C(=O)Nc2ccc(C(=O)OCc3cc(=O)n4nc(C5CC5)sc4n3)cc2)c1 | inactive: 2.87% |
| Cn1c(=O)cc(SCC(=O)N2CCN(c3ccccc3)CC2)c2ccccc21 | inactive: -1.52% |
| O=C(O)c1ccc(C2Nc3ccccc3-c3nnc(SCc4ccc(Cl)cc4)nc3O2)cc1 (stereo not given) | inactive: 20.1% |
| CCCN1C(=O)C2(c3ccccc31)c1c(oc3ccccc3c1=O)C(=O)N2CCCOC(C)C (stereo not given) | inactive: 5.24% |
| O=C(c1ccco1)N1CCN(C(=O)c2cnn(-c3cccc(F)c3)c2C2CCNCC2)CC1 | inactive: -3.87% |
| Cc1cccc(-c2nc(SCC(=O)N(C)c3ccccc3)c3c(=O)n(C)c(=O)n(C)c3n2)c1 | inactive: -4.33% |
| O=C(c1cccc(Cl)c1)N1CCC(c2nc3ccccc3o2)CC1 | inactive: -8.01% |
| O=C(Cn1c(=O)n2nc(-c3cccc(F)c3)nc2c2ccccc21)N1CCN(c2ccccc2F)CC1 | inactive: 1.98% |
| COc1ccc(OC)c(NC(=O)c2c(C)oc3ncnc(N4CCOCC4)c23)c1 | inactive: -20.7% |
| CC1CCN(C(=O)C(C)Sc2nc(-c3ccccc3)cc(C(F)(F)F)n2)CC1 (stereo not given) | inactive: -2.03% |
| CC(Sc1nc2c([nH]c3ccccc32)c(=O)n1-c1ccccc1)c1ccccc1 (stereo not given) | inactive: -52.8% |
| CCCCn1c(=O)nc2n(-c3ccc(F)cc3)c3ccccc3cc-2c1=O | inactive: -17.4% |
| CCOC(=O)C1CCN(C(=O)c2ccc3c(c2)N=C(CC)c2cc(C)ccc2S3)CC1 | inactive: 18.7% |
| Cc1ccc(-c2cc(C(F)(F)F)n3ncc(-c4ccc(Cl)cc4)c3n2)cc1 | inactive: -7.24% |
| CCC(=O)N1CCc2cc(S(=O)(=O)CCC(=O)NCc3ccc(OC)cc3)ccc21 | inactive: -3.19% |
| COc1cccc(CNC(=O)c2cc3ccc4cccnc4c3[nH]2)c1 | inactive: 12.2% |
| COc1ccccc1NC(=O)C1=C(C)Nc2nc(SCc3cccc(F)c3)nn2C1c1ccc(C(=O)O)cc1 (stereo not given) | inactive: -10.2% |
| COc1ccccc1N1CCN(C(=O)c2cc3c(=O)oc4ccccc4c3s2)CC1 | inactive: -2.95% |

| SMILES | activation |
| --- | --- |
| CCc1ccc(NC(=O)CSc2nc3c([nH]c4ccccc43)c(=O)n2-c2cccc(OC)c2)cc1 | inactive: -6.9% |
| CCOC(=O)c1ccc(NC(=O)Cn2cnc3sc(C(=O)OCC)c(C)c3c2=O)cc1 | inactive: -7.56% |
| CCCCCn1c(=O)c2c(nc3n2CCN3c2ccc(Br)cc2)n(C)c1=O | inactive: -2.49% |
| COc1cc(C)ccc1OCCSc1nc2ccc(NC(C)=O)cc2s1 | inactive: 41.5% |
| CCOc1ccc(NC(=O)CSc2nc(=O)[nH]c3c2CCC3)cc1 | inactive: -9.96% |
| CCC(Sc1nnc2c3ccccc3n(C)c2n1)C(=O)Nc1nnc(C(C)C)s1 (stereo not given) | inactive: 19.4% |
| CCC1CN(C(=O)N2CCC(C(=O)N3CCN(c4cc(C)ccc4C)CC3)CC2)c2ccccc2O1 (stereo not given) | inactive: -15.7% |
| COc1ccc(-c2cc3ccc(O)c(CN4CCCC4)c3oc2=O)cc1OC | inactive: -4.75% |
| Cc1ccc(C)c(CNC(=O)c2sc3ncnc(N(C)C4CCCCC4)c3c2C)c1 | inactive: -9.1% |
| COC(=O)COc1ccc(Oc2nc(NC(C)(C)C)nc(N(C)C)n2)nn1 | inactive: -8.71% |
| Cc1cc(F)ccc1NC(=O)CCSc1nc(-c2ccco2)cc(C(F)(F)F)n1 | inactive: 0.568% |
| CCOC(=O)c1c(C)c(-c2ccccc2)n(CC(=O)Nc2cccc(C)c2C)c1C | inactive: -7.53% |
| COc1ccc(C(=O)NCC(c2ccc3c(c2)OCO3)N2CCOCC2)cc1OC (stereo not given) | inactive: 6% |
| Cc1ccc(C(=O)NC2(C(F)(F)F)N=C(c3ccccc3)N(C3CCCCC3)C2=O)cc1 (stereo not given) | inactive: -24.5% |
| CCc1cc2c(cc3c(=O)n(CC(=O)NCCOC)nc(CC)n32)s1 | inactive: -3.37% |
| Cc1ccc2nc(N(Cc3cccnc3)C(=O)CCOc3ccccc3)sc2c1 | inactive: 3.07% |
| Cc1cccc(C(=O)N2CCc3cc(CNS(=O)(=O)c4cccs4)ccc32)c1 | inactive: 0.853% |
| CCn1c(CC2C(=O)N(C)c3ccc(Br)cc32)nc2ccccc2c1=O (stereo not given) | inactive: -36.8% |
| CC(=O)Nc1ccc(Nc2ncnc3sc4c(c23)CCCC4)cc1 | active: 97.4% |
